# Measured values as given in the supplement of paper PMC11417369.
# ± gives the standard deviation of the averaged measurements. Some of the results follow.
# Tested on: PfAP2-LT AP2 domain (GST-tagged)
# Test: gcPBM binding intensity (ln(normalized median fluorescence intensity)); higher = stronger DNA binding
# Summary of the method: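 Alexa488 anti-GST antibody, scanned at 488 nm, detected GST-tagged P. falciparum DNA-binding domains that had been expressed in E. coli and incubated for 1 h on an Agilent 4 × 180k array. The array carried primer-extended double-stranded 36-bp intergenic genomic probes and negative controls. Binding intensity is the highest Masliner-normalised natural-log median intensity across replicate spots of either orientation of each probe.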
row,Sequence,gcPBM binding intensity (ln)
1,AACATAAGTAATATTTGTACATATATAATAATATAT [XGTACX_site5123],8.76 ± 0.44
2,AACATGCAAACATGCACACAGAAAAAAAAAATATAT [CACACA_site1565],9.36 ± 0.44
3,TTACACATACATATGTGGGAAAATATTGCTACATAT [CACACA_negctrl_site463],8.94 ± 0.39
4,AAGAAAAGCATAGATGCACACATATATATATATATA [CACACA_site8675],10.2 ± 0.32
5,GGAACTTAAAAAAAATGTACTTATAAAAAAGGAAAT [XGTACX_site8186],8.63 ± 0.44
6,AAAAAAATATATATATGTACATAACTTTGTTGTGAT [XGTACX_site5243],8.87 ± 0.46
7,TGTTAAATTATTTATCAGATTATTATTTGTAAATAA [CACACA_negctrl_site1535],8.17 ± 0.35
8,TTTGAACATTTTGCAAGTACAAAAAAATAATATATC [XGTACX_site8079],8.65 ± 0.42
9,TATATATATATATATACACACATATATATATTTTTC [CACACA_site3983],9.78 ± 0.29
10,CATTAAACCGTGGGAGCACACACACCCACCCACCCA [CACACA_site8000],9.57 ± 0.2
11,AATTTAAAGAATTGTAGTACAATGAAATATATATAA [XGTACX_site7970],8.74 ± 0.52
12,ATCATTATATTATGGTGTACCCATATATAATTATCA [XGTACX_site551],8.69 ± 0.51
13,AACAATGGATTATTCACACATAAAAAAATTCACATT [CACACA_site5437],8.9 ± 0.37
14,AATACCTATGGAATTAATAATATGTGTACAGACACA [TGCATGCA_negctrl_site547],8.72 ± 0.42
15,GTTATTGTAAAAAGATTACACACGTTCTATATACTT [CACACA_site2473],9.04 ± 0.39
16,GGAATATGTATATTTTGTACGTATACATTTTTTGGG [XGTACX_site7681],9.12 ± 0.25
17,GATATATTTTATATATGTACATACAGTGGTAAATAT [XGTACX_site1324],8.89 ± 0.35
18,TTTATACAAAAAAACAAAATCAAACAAAAAAAAAAA [CACACA_negctrl_site252],8.46 ± 0.57
19,ATGTAATGTTATGTTATGTTTTTTTTTTTTTTGTGT [CACACA_negctrl_site1264],9.02 ± 0.53
20,AAAATTATATATTTTAGTACATAAAATATTGACATA [XGTACX_site2581],8.45 ± 0.42
21,TTTTAAACAGGACACACACACATATATATATATATA [CACACA_site4664],9.96 ± 0.17
22,AGTACGTAAATTATAATACACACTATAGGATATTCT [CACACA_site2559],9.12 ± 0.43

row,Sequence,gcPBM binding intensity (ln)
1,TTTTCTACATCTTGTTGTACGAAAAATAAAAAAAAT [XGTACX_site4620],8.3 ± 0.34
2,ATATTATAATATTTATGTACATATATATAATATATA [XGTACX_site1633],8.61 ± 0.35
3,AATATATATTTATAAACACACACCAAAATTTGTGCT [CACACA_site3091],9.18 ± 0.42
4,ACATTTTGTGTTTTAGCACACAATTTTTCAGAATAT [CACACA_site2961],8.92 ± 0.44
5,TATTAGCATGTTATTACACACAATATAAGATATATA [CACACA_site6775],8.84 ± 0.31
6,AAAATATTTATGTATGCATGTTGTAATATTTCTTTA [TGCATGCA_site296],8.71 ± 0.38
7,TAAAAAAAAACAGAAACACACATTATTCATATATAT [CACACA_site2049],8.85 ± 0.45
8,ATTTCCCCTTTTTATTGTACATTTTTATTTGTTACT [XGTACX_site4845],9.34 ± 0.54
9,TATGCTATATATTTAGTGCATATATATAACTTTTAT [GTGCAC_site9902],8.59 ± 0.35
10,TGTATAAATATATATACACACATATTTATATATATA [CACACA_site755],8.77 ± 0.34
11,TATATATGTATCATTACACACATGTATACTTATTTG [CACACA_site4138],9.26 ± 0.38
12,ATATATGTGCCCATATATATATATATAAATATATGT [GTGCAC_negctrl_site226],9.21 ± 0.32
13,TACATTTGTATAAATAGTACGCGAAAACAAAAAAAA [XGTACX_site6246],8.94 ± 0.46
14,TCATAAATGAAACACACACACACATCTGGATACCCC [CACACA_site3332],9.925 ± 0.0071
15,ATTATATATATAAAGTGTACAAAAAAAAAAAAAAAA [XGTACX_site3134],8.66 ± 0.61
16,AATCAATATAAATAAAATTTTTAATTTTAACCCTAA [GTGCAC_negctrl_site266],8.28 ± 0.47
17,AATGTCCTTATTTGCACACACACATATAAGAAATTT [CACACA_site3186],9.51 ± 0.36
18,ATTTGAGAGTTAACAAAATATTTGGCCATCTTTTAT [XGTACX_negctrl_site447],8.69 ± 0.49
19,TATAATAAATCATATGCATGTTGAAAAAAAAAAAAA [TGCATGCA_site923],8.55 ± 0.44
20,AACTCATAGCGGTGTGCACACAAAAAATTAAAAAAA [CACACA_site3033],9.55 ± 0.54
21,TATAAAATAAAAATTATATATTTTAAATGGATACAA [TGCATGCA_negctrl_site284],8.3 ± 0.59
22,AAAACAAATTAAAATCGTACAATTATAATGTTAATG [XGTACX_site180],8.73 ± 0.49

row,Sequence,gcPBM binding intensity (ln)
1,ATAGCTAAGATAGCTTGTACATATATTTACATATAT [XGTACX_site3694],8.99 ± 0.52
2,ATTTAAATGAAAAAATGTACAAAAAGATTTAAACTC [XGTACX_site1489],9.01 ± 0.49
3,ATGCACATTTATAAAAGTACATGTATGTAATATGTT [XGTACX_site830],9.02 ± 0.49
4,TTGTATTTACACGATCAACCAAATGGTATATAAATA [GTGCAC_negctrl_site167],8.61 ± 0.45
5,ATATGTAGTTTTTACCTAATAAAAAAAAAAAAAAAA [CACACA_negctrl_site672],8.48 ± 0.58
6,AAATCATTCCTTTATTCACACAATATCTGTATTTAT [CACACA_site4407],8.97 ± 0.45
7,TAAACATATAAAAAGGGTACACATTAAACATAGTAT [XGTACX_site7096],9.01 ± 0.4
8,TTAAGCCGCAATATGGGTACATAGGAAGAAGGGGAA [XGTACX_site8397],8.74 ± 0.54
9,ATATATAAAAATATTTGTACATATAGTTATATTTAT [XGTACX_site6114],8.73 ± 0.42
10,TTCTTTGCTTCTGTTTCACACATTTTTAAAATAAGC [CACACA_site4741],8.9 ± 0.42
11,TTATAATTAAGATATAATCAATAATAACAAATGAAC [CACACA_negctrl_site1690],8.64 ± 0.52
12,TTTCTTTTTCTAGTTATTTTTACTTATCCCTAATTT [TGCATGCA_negctrl_site460],8.62 ± 0.56
13,TTAAAGGGAATGTATACACACGTTTCTCTATGTTAT [CACACA_site4793],8.96 ± 0.4
14,TAATTCCATAAGTAAACACACAAATGCCAAAATTTT [CACACA_site3205],8.84 ± 0.4
15,GTGCGTGCGTGTACTTAACACACATAATATGTATTT [CACACA_site8336],9.21 ± 0.42
16,TCCATATGCAAACTGGTGCACAAGTAGCTTTTATAT,8.77 ± 0.31
17,ATTGTCCTAAATACTACAAAGTAGATCTTTAATATT [CACACA_negctrl_site1795],8.58 ± 0.41
18,CAAAAAAGGTCCCGGAGTACATATATAATTTTTTTT [XGTACX_site458],8.59 ± 0.4
19,GAGATGACATTACACAGTACCCAGGAAATCTACGGA [XGTACX_site4931],8.91 ± 0.51
20,TATATATTGTTATATACACACATGTATATAAAAAAT [CACACA_site3221],8.87 ± 0.35
21,TGTGTATTATAAACATGTACATAAAAATACGATATT [XGTACX_site3643],8.93 ± 0.34
22,CGCACTAAAAAACACACACACACACCCATATATATA [CACACA_site4152],10.2 ± 0.29

row,Sequence,gcPBM binding intensity (ln)
1,AAAAAAAAATAATATACACACTCCAATATAAAAAAT [CACACA_site3958],9.06 ± 0.38
2,TTTTTTAAAATAATAGGTACACATAAAAAAAAAAAA [XGTACX_site2517],8.39 ± 0.33
3,AATGATGTTGTATTGTTTCGATATAACATCTAATTT [GTGCAC_negctrl_site309],8.62 ± 0.3
4,TTTTTTCATTTTTTATTTTTTTATTTTTTACATATT [GTGCAC_negctrl_site137],8.68 ± 0.6
5,AAGGATTATTTTAATCGTACATGTGTAAATAATATA [XGTACX_site6177],8.75 ± 0.49
6,TTATTTATTTTCATATGTACTTATTTATAGAGGTTG [XGTACX_site5599],8.72 ± 0.52
7,CATACATACATACATACACACATATATATATATATG [CACACA_site1995],9.46 ± 0.26
8,TATATATATAGACACACACACATATAAATAAATAAA [CACACA_site444],9.56 ± 0.34
9,ATATAATAACAAAAGGTGCGCATTAAGACAAAAAAA,9.27 ± 0.49
10,TTTTTCCCCCTTTTTTTGATTTTTATCTTAATTCTA [TGCATGCA_negctrl_site287],8.59 ± 0.5
11,TATTATATTGTTCATTTACACTTTCATTTTAAAAAA [CACACA_negctrl_site260],8.53 ± 0.42
12,ATATAATAAAATTAATGTACATATATGTATTATATA [XGTACX_site3283],8.87 ± 0.48
13,TTTCATATATATGAAACACACAAAGGAAAAAAAATT [CACACA_site4144],8.84 ± 0.45
14,ACAAGTTTATTTGTTGCACACATATAAGTAGAGAAA [CACACA_site8994],8.88 ± 0.46
15,AAAAAAAAAAAACACACACACATAGACCTCCAATAG [CACACA_site3562],9.77 ± 0.25
16,AACATAATCTCATATACACACAAAAATATTGAAATA [CACACA_site7085],9.04 ± 0.28
17,GCTCATATGACAACAACACACAAAAAAATAAAATGA [CACACA_site714],9.12 ± 0.5
18,ATATTTTGTTATGTAGATGTTGGTAGGAATTTTGGT [CACACA_negctrl_site1104],8.83 ± 0.4
19,AATAAATAAATAAATAAAACAAAGGGATTACATACA [TGCATGCA_negctrl_site513],8.81 ± 0.53
20,CACAACATATATATATATATATATATATATATGTGT [CACACA_negctrl_site28],9.44 ± 0.57
21,TACTTTTTAGGAAAGTGTACAAGCATATAAGGAATA [XGTACX_site2834],8.65 ± 0.54
